The values that follow come from publication PMC10668032.

The other results are listed elsewhere or left out. At the low end of the ranking the order means little.

The experiment concerns the target SIX1-Q177R homeodomain (UniProt Q15475). The experiment can be described thus: universal protein binding microarray. As to conditions: Universal all-10-mer PBM (8x60K, AMADID 030236), 300 nM GST-tagged protein, Alexa Fluor 488 anti-GST; buffer, salt, pH and temperature not stated; high values mean tight binding; most listed sequences are background and not binding sites; double strand, one strand shown.
Regarding CAAACCAG, the binding signal was -0.177 E-score. In the case of AGGCCAGC it was -0.0786 E-score. To CAGGCCTC belongs -0.0575 E-score; to CCAATGGC, -0.146 E-score. Turning to AGTGCTGA, the binding signal is -0.152 E-score.

In the case of GGCTTTGA, the binding signal was -0.145 E-score. In the case of CGCTGTTA it was -0.254 E-score. Consider AGAACGAG, for which the binding signal was -0.0066 E-score. In the case of AGAACCCG it was 0.0591 E-score; in that of AGCTAGGC, -0.182 E-score. As to ATCCTCTG, the binding signal was -0.118 E-score. To ATCTATCA belongs -0.26 E-score; to AAAACTGG, 0.0452 E-score. In the case of CAGCTTCA it was -0.145 E-score; in that of CCGCGCTA, 0.0721 E-score. In the case of CGCTAGAG it was -0.0588 E-score. For the sequence ACAATCGC, the binding signal is -0.124 E-score. In the case of GTATTATA it was 0.0861 E-score.

Regarding CTATGATA, the binding signal is -0.106 E-score. On to GCCTCAAA, for which the binding signal is -0.0712 E-score. To AGATAAGC belongs -0.189 E-score.

In the case of AACAGTGT, the binding signal was 0.323 E-score. To ACCACCTC belongs 0.0673 E-score.

Turning to AAAGAGAA, the binding signal was -0.223 E-score. In the case of GGACATCC it was -0.23 E-score; in that of CAAAGCCC, -0.225 E-score; in that of AAAGGACC, -0.151 E-score. In the case of AGCGCACG it was 0.0778 E-score. Consider CTGATCAA, for which the binding signal was -0.11 E-score. In the case of ACATCAGA it was -0.197 E-score; in that of ACGCTCCT, -0.169 E-score; in that of CCGTTCCA, 0.075 E-score.

As to ACCTTAAG, the binding signal came out at 0.036 E-score. To AGGGTTTG belongs 0.0237 E-score; to ATTTTGCG, -0.0341 E-score; to CCTAGTTC, -0.101 E-score.

Turning to AGTTTACA, the binding signal was found to be 0.192 E-score. To TACGACCA belongs -0.0343 E-score; to CTAGGTCA, -0.191 E-score; to ACTACACG, 0.421 E-score. In the case of ATTGGCCC it was -0.172 E-score; in that of GTAGACGA, -0.0894 E-score; in that of ACTCAGAC, 0.106 E-score. Regarding AGGTTCCG, the binding signal was 0.0234 E-score. In the case of CTAAACAA, the binding signal was -0.215 E-score. In the case of GAATGTAA it was -0.185 E-score; in that of AGGCATGA, -0.224 E-score. For the sequence CTGAACGC, the binding signal is -0.0516 E-score. Regarding AAACTCAG, the binding signal was -0.0875 E-score. In the case of CAAGGCCG it was -0.181 E-score; in that of AGGAACAC, 0.394 E-score; in that of CCTTCTTA, 0.0255 E-score.

As to ACCGAGGT, the binding signal was 0.149 E-score. As for CCAGGCAG, the binding signal is 0.0511 E-score. As for GCCTTGCA, the binding signal is -0.297 E-score. To TGATCACA belongs 0.0144 E-score; to ACTTGTGG, 0.135 E-score. In the case of ACATTGGG it was -0.0572 E-score.

For the sequence CACACTGA, the binding signal was 0.208 E-score. On to ACCTAACA, for which the binding signal came out at 0.203 E-score. Take GCAGAATA: the binding signal was -0.201 E-score.

As to AAAGATGT, the binding signal is -0.245 E-score. Consider AACCTATG, for which the binding signal is -0.182 E-score. In the case of CCGGACAA it was 0.0845 E-score; in that of GTATGAAA, -0.102 E-score. On to CCATAGGC, for which the binding signal was -0.155 E-score.

Consider CACCATTA, for which the binding signal is 0.266 E-score.

For the sequence ATATTTAA, the binding signal is -0.186 E-score. To GAAACGCC belongs -0.00711 E-score; to AGTTTCAA, -0.0833 E-score.

On to AAAAAACA, for which the binding signal is -0.0895 E-score. CAGCGGTC: the binding signal worked out at 0.0891 E-score.

Consider AAGTCTGA, for which the binding signal was -0.159 E-score. To AATTAACG belongs 0.01 E-score.

As for AGATGGGG, the binding signal was -0.0587 E-score. To GAGCACAA belongs -0.125 E-score; to GCTAACAC, 0.417 E-score; to GACCTCCC, -0.0877 E-score.

As to CCTTGGCA, the binding signal was -0.105 E-score. With CAAGGTCC, the binding signal is -0.111 E-score. For the sequence TAATTTCA, the binding signal was -0.129 E-score. To CTACGGAA belongs -0.191 E-score; to AGGGTGAG, 0.00777 E-score; to CATCGACA, 0.0318 E-score. On to CACGGCAA, for which the binding signal is 0.173 E-score. In the case of CTGCACTC it was 0.0611 E-score; in that of CTGTTCCC, -0.198 E-score; in that of ACTGAGGG, 0.0372 E-score.

Regarding CTAAACTA, the binding signal is -0.18 E-score. To CTAGACAC belongs 0.393 E-score. As for AATAGGCG, the binding signal worked out at 0.0175 E-score. As for AGCGATTC, the binding signal was -0.0364 E-score. To AAGTTCGC belongs -0.351 E-score; to GCAAGTGA, -0.0531 E-score.

With ATCATCTC, the binding signal was -0.168 E-score.

For CTATGTGA, the binding signal worked out at 0.149 E-score.

Take AAAATCGG: the binding signal was -0.166 E-score. For GATCTCAC, the binding signal was -0.0725 E-score.

With AGTACCGG, the binding signal is 0.0769 E-score. For CATGCGCC, the binding signal was -0.0701 E-score.

Take TGGGGTAA: the binding signal was determined as 0.26 E-score.

Take ATGAGCGA: the binding signal was -0.331 E-score. As for CAAGTGGC, the binding signal was -0.0444 E-score.

With CTCGAATA, the binding signal was -0.198 E-score. For GGGGTGTA, the binding signal came to 0.486 E-score.

For CGTAGGCC, the binding signal is -0.0178 E-score.

Regarding CCCTCGAG, the binding signal is 0.0434 E-score.

For CAGCCAGC, the binding signal was -0.179 E-score.

With CATTGTCC, the binding signal is -0.143 E-score. In the case of GCTCCTTA it was -0.0512 E-score; in that of CGCGTAAG, -0.0139 E-score. To CAGCGCAA belongs -0.0674 E-score; to GTCTGCTA, -0.11 E-score.

Turning to CGAATTCC, the binding signal was -0.101 E-score. For the sequence ATTCCCAA, the binding signal is -0.179 E-score. For the sequence ATGGTGAA, the binding signal is -0.137 E-score. To CGGAGGAC belongs -0.0744 E-score; to GAGAGGCC, -0.179 E-score. In the case of AGGGGCAA, the binding signal is -0.0561 E-score. In the case of TATGCCGA it was 0.118 E-score; in that of CCTATACG, -0.213 E-score.

In the case of CGTTATCC, the binding signal stood at 0.0885 E-score. In the case of CATGAGTA it was -0.0622 E-score; in that of CCGCCGTA, 0.164 E-score. In the case of AGGTGTTC, the binding signal was determined as 0.457 E-score.

For CAAGACAC, the binding signal worked out at 0.402 E-score.

As to GTGCAAAC, the binding signal was found to be 0.0503 E-score.

Take CGTGGGAG: the binding signal was 0.0667 E-score. To ACCGTGAA belongs -0.149 E-score. CCGATTAC: the binding signal was 0.216 E-score. In the case of GCGGGTCA it was 0.116 E-score. As to AACCGCTA, the binding signal was found to be 0.0752 E-score.

For the sequence ACAGGACT, the binding signal is -0.283 E-score. In the case of CATCTGAG, the binding signal was found to be 0.00416 E-score.

For ACTGCAAA, the binding signal is -0.234 E-score. On to ACGGGGCC, for which the binding signal was -0.161 E-score. With ATGCGTGC, the binding signal is -0.029 E-score. In the case of GGGACACA it was 0.232 E-score. Take GCGCACGA: the binding signal was 0.0269 E-score. To CCCTAACG belongs -0.089 E-score; to AATAGTAC, 0.118 E-score; to AAATGGGT, 0.00197 E-score. AGTGGTCA: the binding signal is -0.202 E-score.

With CCGTTTCC, the binding signal was -0.234 E-score. Consider ATTAAACA, for which the binding signal came to 0.0131 E-score.

CCTCCAAA: the binding signal is 0.122 E-score.

With AACCCATA, the binding signal was -0.00075 E-score. To ACTACCCT belongs 0.118 E-score; to CCTCGCCA, 0.102 E-score. Take CATACCGA: the binding signal is -0.0175 E-score.

For GGATCTCA, the binding signal turned out to be 0.0399 E-score.

Turning to TCACATGA, the binding signal is -0.115 E-score. To ATGCTGGC belongs -0.103 E-score. On to CCTGACTA, for which the binding signal is -0.0565 E-score. For the sequence AGGGACGA, the binding signal is -0.128 E-score. In the case of TCACTCGA, the binding signal was determined as 0.00407 E-score. To AAGAAGAA belongs -0.137 E-score; to ACACTGGT, 0.426 E-score; to CGATAGTA, 0.0157 E-score. To AGTAATTG belongs 0.00079 E-score; to CCACAAGA, -0.0154 E-score; to GCACTTCC, -0.24 E-score. In the case of GCTGATAC it was 0.243 E-score; in that of CACTAGGC, 0.221 E-score.

For the sequence ACTGAAGC, the binding signal is -0.24 E-score.

Consider GGTGTCAC, for which the binding signal was 0.491 E-score.

Take AGTCGCCC: the binding signal is -0.0295 E-score. To CGGCAAAC belongs 0.0301 E-score. As to TATAATAA, the binding signal is -0.0454 E-score. In the case of ACGGGTGG it was 0.136 E-score; in that of GAGTCACA, 0.26 E-score. With CGAATTTC, the binding signal was -0.188 E-score.
